Experimental data reported in PubChem BioAssay AID686970 (National Center for Advancing Translational Sciences (NCATS), 2013).
The whole screen tested about 360,000 compounds, of which about 6,000 (1.7%) were called active. Inconclusive results, whose numbers are uncertain, are shown with a selection of clear calls. Calls follow the shape of the dose curve; as a rule, active = well fitted cell-killing curve with a large enough effect; inconclusive = small, poorly fitted or top-dose-only effect, or effect the other way; inactive = flat fitted curve, though single readings scatter. No potency is given beside an inconclusive call; the fits are too rough.

Assay: qHTS for induction of synthetic lethality in tumor cells producing 2HG: qHTS for the HT-1080-NT fibrosarcoma cell line;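 also: NT is the 2HG producing partner of a matched IDH1 knockdown line; nearly all actives have a fitted effect of over 55% in size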;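 as to activity, negative = less viability: 0% = DMSO-treated cells and -100% = media-only wells without cells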
Conditions: HT-1080-NT fibrosarcoma viability, CellTiter-Glo ATP luminescence, 48 h; activity, negative = less viability: at 46.1 µM (top of the series) unless noted
In short: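 Viability of the 2HG-overproducing fibrosarcoma line after 48 hours of compound exposure at 37 degrees C was determined by luminescence with CellTiter-Glo, and concentration-effect curves were then fitted and categorized.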
Potency is read from the fitted curve at half-maximal effect; tags tell the direction and shape of the fitted curve.

Compound	Potency	activity, negative = less viability
CCN(CC)c1nc(SCCOC(=O)Nc2ccccc2)nc(N(CC)CC)n1	inconclusive [cytotoxic, single point]	–
Cc1ccc(CNS(=O)(=O)/C=C/c2ccc3c(c2)OCO3)cc1	–	inactive: -1.4%
Cc1ccc(C(=O)Nc2ncc(Cc3ccc(SC(F)F)cc3)s2)cc1	active: 1.84 µM	–
Cc1cc(C)nc(-n2nc(C)cc2NC(=O)CN2CCc3ccccc3C2)n1	inconclusive [cytotoxic, full curve, poor fit]	–
COc1ccc(OC)c(-c2csc(NC(=O)Cn3[nH]c(=O)c4ccccc4c3=O)n2)c1	inconclusive [cytotoxic, single point]	–
O=C(NCc1ccncc1)C1Cc2c(-c3ccccc3Oc3ccccc3)ccnc2O1 (configuration not stated)	inconclusive [cytotoxic, single point]	–
CCn1c(=O)c2cc(S(=O)(=O)NCc3ccccc3)ccc2n(CC)c1=O	inconclusive [cytotoxic, single point]	–
CCOc1cccc(CN2CCN(c3cccc(C(F)(F)F)c3)CC2)c1O	inconclusive [cytotoxic, single point]	–
O=C1C=CC2(O[C@H](c3ccccc3)[C@@H](c3ccccc3)O2)[C@H](Sc2ccccc2O)C1	active: 4.61 µM	–
COc1cc(C2=NOC(C(=O)NCc3cccs3)C2)cc(OC)c1OC (configuration not stated)	active: 5.8 µM	–
COc1ccc(CN2CC(=O)N3[C@H]4c5ccccc5OC[C@@H]4[C@H](c4ccccc4)[C@]3(C)C2=O)cc1	–	inactive: -3.47%
CC(=O)N1CCOc2ccc(S(=O)(=O)N3CCC(C(=O)Nc4ccc(F)cc4)CC3)cc21	–	inactive: -9.87%
Cc1ccc(N2C(=O)CC(Sc3nc(C)cc(C)n3)C2=O)cc1 (configuration not stated)	inconclusive [cytotoxic, partial curve]	–
COCCNc1ncnc2c1ncn2[C@H]1CN(Cc2ccc(Cl)cc2)C[C@@H](CO)O1	inconclusive [rising, single point]	–
CCCCCCC[N+](CC)(CC)CCCCc1ccc(Cl)cc1	active: 6.51 µM	–
CC1(c2ccc(OC(F)F)cc2)NC(=O)N(/N=C/c2c(O)ccc3ccccc23)C1=O (configuration not stated)	inconclusive [cytotoxic, single point]	–
O=C(c1ccc(Br)cc1)N1CCN(Cc2ccccc2)CC1	–	inactive: 6.22%
CCS(=O)(=O)/N=C(\N)c1ccccc1	inconclusive [rising, single point]	–
COC(=O)C(CC(C)C)N(Cc1cc(OC)cc(OC)c1)S(=O)(=O)c1ccccc1Br (configuration not stated)	–	inactive: 0.197%
CN1CCN(C(=S)NC(=O)c2ccc(Br)cc2)CC1	–	inactive: 22.1%
COc1ccc(Cl)cc1NC(=O)CNc1ccccc1CN(C)C1CCCCC1	inconclusive [cytotoxic, partial curve]	–
NC(Cc1ccc(C(F)(F)F)cc1)c1csc(Nc2ccc(C(=O)NCCCO)cn2)n1 (configuration not stated)	inconclusive [cytotoxic, single point]	–
Cc1ccc(Cc2c(-c3ccco3)nc3ccc(Cl)cn23)cc1	active: 23.1 µM	–
CNCCCC1c2ccccc2C=Cc2ccccc21	active: 18.4 µM	–

Compound	Potency	activity, negative = less viability
CCCN(CC(=O)Nc1cc(Cl)cc(Cl)c1)CC(=O)Nc1ccc(F)c(F)c1F	inconclusive [cytotoxic, single point]	–
O=C1C=CC(=O)c2c(O)c(N3CCN(CCO)CC3)c(Cl)c(O)c21	active: 5.8 µM	–
COc1cccc(CN(CCC(=O)O)Cc2cccc(OC)c2)c1	–	inactive: 0.967%
CC1(C)C2CC=C(/C=N/NC(=S)Nc3cccnc3)C1C2 (configuration not stated)	inconclusive [rising, single point]	–
CCCOc1cccc(C(=O)NCCNC(=O)c2cnccn2)c1	–	inactive: 11.6%
Clc1ccc(-c2cc(COc3ccccc3)on2)cc1	–	inactive: 28.9%
COc1ccc(-c2oc(=O)c3cc(OC)c(OC)cc3c2C#C[C@]2(O)CC[C@H]3[C@@H]4CCc5cc(OC)ccc5[C@H]4CC[C@@]32C)cc1	–	inactive: 2.01%
Cc1ccc(S(=O)(=O)/N=C(/Nc2cccc3ccccc23)c2ccc(F)cc2)cc1	inconclusive [cytotoxic, single point]	–
Cc1nc2ccccc2nc1N/N=C/c1ccc(O)cc1O	inconclusive [cytotoxic, full curve]	–
CCOc1ccccc1C1CC(=O)NC(SCC(=O)Nc2nccs2)=C1C#N (configuration not stated)	–	inactive: -8.3%
CCOc1ccc2[nH]c3c(NCCN(CC)CC)ncnc3c2c1	inconclusive [cytotoxic, single point]	–
Cc1cccc(OCc2n(CC(=O)OC3CC(C)CCC3C(C)C)c3ccccc3[n+]2C)c1 (configuration not stated)	active: 18.4 µM	–
CC(=O)Nc1cccc(NC(=O)CSc2nc(C3CC3)nc3ccccc23)c1	inconclusive [cytotoxic, single point]	–
O=C1CC(c2ccc3c(c2)OCCO3)Oc2ccc([N+](=O)[O-])cc21 (configuration not stated)	inconclusive [cytotoxic, single point]	–
O=C(N/N=C/c1c[nH]c2ccccc12)c1cc(-c2ccccc2)n[nH]1	inconclusive [cytotoxic, single point]	–
CCOc1ccc(S(=O)(=O)Nc2cccc(-c3ccc(N4CCCCCC4)nn3)c2)cc1	–	inactive: -16.7%
Cc1ccc(S(=O)(=O)NCC(=O)N/N=C/c2ccccc2O)cc1	inconclusive [cytotoxic, partial curve]	–
Cc1ccc(C(=O)NCCc2cccc(Cl)c2)cc1[N+](=O)[O-]	–	inactive: -6.4%
C/C(=N\NC(=O)c1ccccc1)c1c(C)[nH]n(-c2ccccc2)c1=O	–	inactive: -18.9%
CCNCc1cc(Cl)c(OCc2ccccc2)c(OCC)c1	active: 16.4 µM	–
Cc1c(NC(=O)COC(=O)/C=C/c2cccc(Br)c2)c(=O)n(-c2ccccc2)n1C	–	inactive: 7.74%
Oc1ccc(/C=C/c2ccc3cccc(O)c3n2)cc1Br	inconclusive [cytotoxic, single point]	–
COc1ccc2cc(C(C)C(=O)Nc3cccc(S(=O)(=O)N(C)C)c3)ccc2c1 (configuration not stated)	inconclusive [cytotoxic, single point]	–
